From ChEMBL document CHEMBL4888484, “Replenishing the malaria drug discovery pipeline: Screening and hit evaluation of the MMV Hit Generation Library 1 (HGL1) against asexual blood stage Plasmodium falciparum ,using a nano luciferase reporter read-out” (2022) come the findings set out here.

SMILES strings stand for the structures. Among all 150,000 compounds or so, about 540 (0.36%) showed an effect of 50% or more. The list shows a part of the results.

The assay deals with Plasmodium falciparum. Put plainly: Primary screen in NF54 nanoGlo assay, in single point, at 2uM, 72h; a lower Z score goes with more inhibition. To be noted: timepoint 72 hour. The assay is classed as functional, Erythrocyte.
Broadly, the % Inhibition is the relative decrease from the control value, in per cent. For the compound `N#Cc1cccc(C(=O)N2CCC(n3nccn3)CC2)c1`, the “% Inhibition” value amounted to 7% and the Z score is -1.18.
Taken in the same sequence, the figures for `CCc1nc(C#N)cc(NC2CCN(S(N)(=O)=O)CC2)n1` were 0% and 0.05.
On to `CCNC(=O)N1CC(C(=O)NCc2cccnc2)CCC1c1ccc(F)c(C)c1` (stereo not drawn), for which the “% Inhibition” value is recorded as -19% and the Z score worked out at 1.84.
Consider `COc1cc(OC)c(NC(=O)[C@@H]2CCn3c(C(=O)c4ccccc4)ccc32)cc1Cl`, for which the “% Inhibition” value is listed as -1% and the Z score came out at 0.19.
For `OCc1ccccc1-c1nccc2ccccc12`, the “% Inhibition” value is -6% and the Z score turned out to be 1.09.
Taken in the same sequence, the figures for `O=C(O)C1CCN(C(=O)C2CC2c2ccc3ccccc3c2)CC1` (stereo not drawn) were -15% and 2.37.
`O=C(NCCc1ccc(O)cc1)Nc1cc(N2CCOCC2)ccc1Cl`: the “% Inhibition” value is on record as -6% and the Z score is listed as 0.96.
Take `CC(C)Cn1cc(CN[C@H](c2cccs2)C2(CO)CCC2)cn1`: the “% Inhibition” value is -10% and the Z score came out at 1.18.
For `CCN(CC(=O)NC(C)(C)C)C(=O)COc1ccc(Br)cc1F` the same measures were -5% and 0.83.
Regarding `Cc1nc(N(C)C2CCCCC2)ncc1[C@H](C)NS(=O)(=O)N(C)C`, the “% Inhibition” value is on record as -8% and the Z score stood at 1.18.
Take `CC1CN(Cc2nc(N(C)C)no2)CC2(CCOC2)O1` (stereo not drawn): the “% Inhibition” value amounted to 7% and the Z score is given as -0.87.
With `CCc1nsc(N2CCOC[C@@H]2Cc2ccccc2)n1`, the “% Inhibition” value turned out to be 3% and the Z score is on record as -0.47.
Take `CC1CCCN(C(=O)c2ccc3c(c2)CCC(=O)N3)C1CN` (stereo not drawn): the “% Inhibition” value is given as -13% and the Z score is recorded as 1.81.
For the compound `COc1cccc(NC(=O)CC(F)(F)F)c1`, the “% Inhibition” value is recorded as 2% and the Z score is -0.26.
In the case of `C[C@@H](NC(=O)CN1C[C@@H]2CCC[C@]2(C(N)=O)C1)c1ccccc1`, the “% Inhibition” value was -14% and the Z score was determined as 2.28.
For `Cc1cccc(C)c1NC(=O)N1C[C@@H](C)N(C)[C@@H](C)C1`, the “% Inhibition” value is recorded as 14% and the Z score is -1.88.
For `CC1CCN(c2nc(CS(=O)(=O)c3ccccc3)cs2)CC1` the same measures were -3% and 0.44.
Turning to `CN(C)C(=O)Cn1ccc(-c2cccc(-c3ccc(C#N)cc3)c2)n1`, the “% Inhibition” value is recorded as -11% and the Z score was determined as 1.02.
`COC(=O)C12CCCC1CN(Cc1scnc1C)C2` (stereo not drawn): the “% Inhibition” value is on record as -1% and the Z score came out at 0.09.
For `CCOC(=O)C1CCN(c2nc(-c3ccccc3Cl)c3c(N)n(C)nc3n2)CC1` the same measures were 0% and 0.07.
In the case of `O=C(c1cc2n(n1)CCCO2)N1CC[C@H](Oc2cnc3ccccc3n2)C1`, the “% Inhibition” value is 0% and the Z score is listed as -0.05.
Taken in the same sequence, the figures for `CC(=O)N1N=C(c2cccc(Cl)c2)OC12CCCC2` were -7% and 1.16.
Taken in the same sequence, the figures for `CC(C)N1CCC2(CC1)N=C(c1ccccc1O)C[C@@H](c1ccccc1O)N2` were -16% and 1.81.
For the compound `Cc1ccc(NC(=O)[C@@H]2CCc3cc(F)ccc32)c(C)n1`, the “% Inhibition” value worked out at 2% and the Z score is given as -0.34.
Take `CCNc1ncc(C(=O)N2CCCC[C@@H]2CCN2CCN(C)CC2)cn1`: the “% Inhibition” value was -2% and the Z score was found to be 0.33.
Regarding `CN(CCc1ncon1)C(=O)c1cn2cc(Cl)cnc2n1`, the “% Inhibition” value was -8% and the Z score turned out to be 1.16.
`CCOCc1nc2c(c(N(C)Cc3ccon3)n1)CCNCC2`: the “% Inhibition” value is listed as -12% and the Z score amounted to 1.27.
On to `CC(NC(=O)C1CCCN(C(=O)c2cccs2)C1)c1cccc(Cl)c1` (stereo not drawn), for which the “% Inhibition” value stood at 9% and the Z score is -1.18.
With `Cc1cc(CNc2cccc3ccccc23)no1`, the “% Inhibition” value is given as -7% and the Z score was 0.68.
Regarding `NCCOc1cccc(C(=O)N[C@H]2CCCC[C@@H]2c2ccccc2)c1`, the “% Inhibition” value is listed as -11% and the Z score is given as 1.76.
Consider `CC(C)CC(=O)Nc1nc(C(=O)N2CCCC(C)(C)C2)cs1`, for which the “% Inhibition” value is recorded as -3% and the Z score was found to be 0.4.
With `Cc1oncc1C(=O)N1CCN(c2ccc(-n3cncn3)nn2)CC1`, the “% Inhibition” value amounted to 10% and the Z score was -1.21.
Consider `CCN(C1CCN(C)CC1)C1CN(C(=O)COCc2ccccc2)C1`, for which the “% Inhibition” value is listed as -7% and the Z score was found to be 0.93.
Taken in the same sequence, the figures for `CC(C)N(Cc1c(-c2ccccc2)noc1N1CCCCC1)C(=O)c1ccc2c(c1)OCO2` were 14% and -1.74.
For `CC(CCS(C)(=O)=O)NC(=O)NC1CCCC(C2CC2)C1` (stereo not drawn) the same measures were 2% and -0.36.
In the case of `O=C(CCOc1ccccc1)Nc1cccnc1`, the “% Inhibition” value is recorded as -11% and the Z score amounted to 1.35.
Turning to `Cc1ccc(C)c(NC(=O)C[C@H]2Cn3ncc(-c4ccccc4)c3NC2=O)c1`, the “% Inhibition” value is -5% and the Z score is listed as 0.99.
For `CC[C@H](C)c1csc(NC(=O)NCCCOC)n1` the same measures were -12% and 1.5.
For `CC(C)N(C(=O)c1nc(-c2cnccn2)no1)C(C)C` the same measures were -8% and 1.19.
Taken in the same sequence, the figures for `CC(=O)c1c[nH]c(C(=O)N2CCO[C@H](c3ccc(Br)cc3)C2)c1` were 1% and -0.15.
As for `CC(C)C(NC(=O)c1ccco1)C(=O)NCC1CCCO1` (stereo not drawn), the “% Inhibition” value was -3% and the Z score was found to be 0.28.
Turning to `CCC[C@@H](CCO)CNC(=O)c1c(C(C)C)nn(C)c1Cl`, the “% Inhibition” value is on record as -4% and the Z score is 0.8.
As for `c1ccc(N2CCN(Cc3cccc(OC4CCNCC4)c3)CC2)nc1`, the “% Inhibition” value is given as 26% and the Z score is -3.59.
For `C[C@@H](CNc1ncccc1C#N)c1nc2ccccc2o1`, the “% Inhibition” value is reported as 0% and the Z score was -0.07.
On to `O=C(O)C1CCCC(C(=O)NCCC2CCCO2)C1` (stereo not drawn), for which the “% Inhibition” value is listed as -8% and the Z score turned out to be 1.14.
Taken in the same sequence, the figures for `CN1CCOC(CN(C(=O)C2CCOC2)c2nccs2)C1` (stereo not drawn) were -8% and 0.88.
For the compound `COc1ccsc1S(=O)(=O)N[C@H](c1ccncc1)C(C)C`, the “% Inhibition” value is given as -5% and the Z score is given as 0.83.
On to `Cc1cc(Br)cc(C(=O)N(C)CC(C)(CO)CO)c1`, for which the “% Inhibition” value worked out at 1% and the Z score is on record as -0.14.
In the case of `CC(C)c1ccc2c(c1)N=C(c1cccs1)N=C(c1cccs1)N2`, the “% Inhibition” value is 5% and the Z score is recorded as -0.6.
With `CCc1cc(C(=O)NC(CC)[C@H]2C[C@@H](O)C2)[nH]n1` (stereo partly drawn), the “% Inhibition” value was -10% and the Z score is 1.26.
Take `CCc1nc2cc(C(=O)NC[C@H]3CCS(=O)(=O)C3)cc(NC(=O)c3ccccc3OC)c2n1C`: the “% Inhibition” value is given as -9% and the Z score stood at 1.74.
`Cc1cc(C(=O)N[C@@H](C)C2(S(C)(=O)=O)CC2)n2nc(C)cc2n1`: the “% Inhibition” value amounted to 3% and the Z score is recorded as -0.44.
Regarding `COc1ccc2c(c1)c(CN1CCC[C@@](F)(C(=O)NCc3ccncc3)C1)cn2C`, the “% Inhibition” value is given as 1% and the Z score is -0.24.
Taken in the same sequence, the figures for `CC(CNC(=O)NC1COc2cc(F)cc(F)c21)c1nccs1` (stereo not drawn) were -2% and 0.15.
Taken in the same sequence, the figures for `Cc1cccc(N2CCN(C(=O)c3ccccc3Oc3ccccc3)CC2)c1C` were -4% and 0.77.
For the compound `COCCN(CC1CC1)[C@@H](C)C(=O)Nc1ccc(F)cc1`, the “% Inhibition” value was -3% and the Z score was found to be 0.44.
As to `Cc1cc2n(n1)CCCN2CC(=O)Nc1ccc(C)c(Cl)c1`, the “% Inhibition” value was -13% and the Z score was 2.27.
`CCCCNC(=O)c1coc(CN2C(=O)COc3ccc(C(=O)COc4ccccc4C)cc32)n1`: the “% Inhibition” value is given as -7% and the Z score is reported as 1.2.
For `O=C(O)CCc1cc2n(n1)CCCN(Cc1cnn(-c3cccc(F)c3)c1)C2`, the “% Inhibition” value is reported as -4% and the Z score is 0.67.
Consider `CN(C(=O)Cc1ccc2c(c1)OCO2)c1ncccc1F`, for which the “% Inhibition” value is 3% and the Z score is reported as -0.35.
For the compound `Cc1nc(CCC(=O)Nc2nc3ncccn3n2)oc1-c1ccccc1`, the “% Inhibition” value is on record as -10% and the Z score was determined as 1.82.
`CCOC(=O)c1cn([C@H](C(N)=O)C(C)C)cc(Oc2ccccc2)c1=O`: the “% Inhibition” value is on record as -8% and the Z score is reported as 0.83.
With `CCCCc1nc(CN2CCC([C@]3(Cc4ccc(F)cc4)NC(=O)N(C4CCCC4)C3=O)CC2)c[nH]1`, the “% Inhibition” value was -11% and the Z score amounted to 1.33.
Taken in the same sequence, the figures for `CC[C@@H](C(N)=O)N1CCN(Cc2nc(-c3cccs3)no2)CC1` were 35% and -5.01.
Consider `O=C(COc1ccc(-c2nc3ccccc3s2)cc1)Nc1ccc2c(c1)OCO2`, for which the “% Inhibition” value is -4% and the Z score amounted to 0.44.
Turning to `Cc1ccc(N2C[C@@H](C(=O)NCCNc3ncccn3)CC2=O)cc1`, the “% Inhibition” value was -6% and the Z score was 1.07.
As to `O=C(c1ccccc1OC[C@H]1CCCO1)N(CCO)Cc1cccnc1`, the “% Inhibition” value was -4% and the Z score worked out at 0.46.
For `Cc1ccc(NC(=O)[C@@H]2OCC(=O)N(C)[C@@H]2c2cnn(C)c2)c(C)n1` the same measures were -2% and 0.41.
For `COc1ccc2c(c1)N1CCN(CC(=O)N3CCOCC3)CC1C(C(=O)Nc1ccccc1)C2` (stereo not drawn) the same measures were 2% and -0.23.
With `N[C@@H](CCc1ccc2c(c1)OCCO2)c1ccccc1`, the “% Inhibition” value is -19% and the Z score is recorded as 2.22.
For the compound `Cc1ccc(C(=O)Nc2ccc3c(c2)cc(C(=O)NCc2ccncc2)n3Cc2cccc(F)c2)cc1C`, the “% Inhibition” value stood at 7% and the Z score is listed as -1.12.
As for `O=C(NC[C@H]1OC[C@@H](NCc2cccnc2)[C@@H]1O)c1ccc(F)cc1`, the “% Inhibition” value is listed as -7% and the Z score stood at 0.99.
In the case of `CC(C)c1cc(CN(Cc2cc(C(C)C)c(O)c(C(C)C)c2)C2CCCCC2)cc(C(C)C)c1O`, the “% Inhibition” value came to 95% and the Z score is reported as -12.83.
`O=C(N[C@H]1C[C@H]2OCC[C@@H]12)c1ccncc1O`: the “% Inhibition” value is reported as -5% and the Z score is recorded as 0.84.
Regarding `CCN(CC)c1nc(NCc2ccc(OC)cc2)c2cnn(C)c2n1`, the “% Inhibition” value was 3% and the Z score was -0.52.
For `Cc1nn(C2CCOCC2)c(C)c1C(=O)Nc1nnnn1C1CC1` the same measures were 8% and -1.3.
Turning to `O=C(CC[C@H]1CCO1)N1CCN(C(=O)c2cccc(F)c2)CC1`, the “% Inhibition” value is 6% and the Z score was -0.89.
Regarding `CCN(CC)c1onc(-c2ccccc2)c1CN(CC1CC1)C[C@H](O)COC(C)C`, the “% Inhibition” value is -8% and the Z score came out at 1.04.
Taken in the same sequence, the figures for `O=C(CCCc1ccccc1)N1CC[C@H](Cc2noc(C3CC3)n2)C1` were -1% and 0.12.
For the compound `CCN(C(=O)Cn1c(=O)n(CCCS(=O)(=O)C2CCCCC2)c(=O)c2ccccc21)c1cccc(C)c1`, the “% Inhibition” value was -3% and the Z score is listed as 0.45.
In the case of `O=C(NCC1([C@H](O)c2ccccc2)CC1)c1cc(N2CCCC2)ccn1`, the “% Inhibition” value is -4% and the Z score came out at 0.48.
On to `COc1ccc(NC(=O)CC(C)(C)C)c(OC)c1`, for which the “% Inhibition” value was 0% and the Z score is recorded as -0.01.
Turning to `CCc1nc(CN2C(=O)[C@@H]3CCCCN3C2=O)cs1`, the “% Inhibition” value is on record as 10% and the Z score is listed as -1.67.
For `Cc1csc(C(NC(C)CC2CC2)C2CC2)n1` (stereo not drawn), the “% Inhibition” value was -9% and the Z score amounted to 0.87.
